# Measured values from publication PMC7382272 (Proceedings of the National Academy of Sciences of the …, 2020).
# T1: Rubicon RH domain (Rubicon homology domain, residues 699–949) (human, UniProt Q92622 699-949)
# T1 sequence (looked up): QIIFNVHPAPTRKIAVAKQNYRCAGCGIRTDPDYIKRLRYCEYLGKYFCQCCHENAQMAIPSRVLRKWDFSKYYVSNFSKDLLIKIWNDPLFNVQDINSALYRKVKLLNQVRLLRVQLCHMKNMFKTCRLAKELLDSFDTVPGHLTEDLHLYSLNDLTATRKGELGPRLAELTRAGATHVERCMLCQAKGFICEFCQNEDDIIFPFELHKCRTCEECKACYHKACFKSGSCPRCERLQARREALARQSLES
# B1: Rab7–GTP (GTP-locked Q67L mutant of human Rab7, […]) (domain or fragment)
# chain: not shown
# Biological target: T1, Rubicon RH domain (Rubicon homology …)
# Assay: SEC
binder,measurement,value
B1,binding result,binds
